Results: patent US20220106389A1 (BEIJING BEYOND BIOTECHNOLOGY, published 2022)
Values belong to the binder of their own block, whether it stands above or below them.

Key:
[1] = molecular target: T1, Mouse VEGF164 (mouse, UniProt Q00731-2 27-190); experiment: SPR (Biacore T100), fusion protein captured by anti-IgG on CM5 chip, antigen injected
T1 construct: Bought protein; also called mouse VEGF-A
T1 sequence (looked up): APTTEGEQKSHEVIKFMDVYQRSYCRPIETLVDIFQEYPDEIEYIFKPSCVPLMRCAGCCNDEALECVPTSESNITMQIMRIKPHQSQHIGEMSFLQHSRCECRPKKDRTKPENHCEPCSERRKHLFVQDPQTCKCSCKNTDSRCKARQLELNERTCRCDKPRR

[2] = molecular target: T2, VEGF165 (human, UniProt P15692-4 27-191); experiment: as above
T2 construct: Bought protein; also called VEGF-A; human-VEGF-A
T2 sequence (looked up): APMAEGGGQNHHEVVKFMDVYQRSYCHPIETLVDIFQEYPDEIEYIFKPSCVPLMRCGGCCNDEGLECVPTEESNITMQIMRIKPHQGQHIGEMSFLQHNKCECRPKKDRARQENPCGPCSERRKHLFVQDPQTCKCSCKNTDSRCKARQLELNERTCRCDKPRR

[3] = molecular target: T3, Recombinant human CTLA-4 (human, UniProt P16410 37-162); experiment: ELISA, plate coated with recombinant human CTLA-4, anti-human HRP detection
T3 construct: Bought protein; also called hCTLA-4
T3 sequence (looked up): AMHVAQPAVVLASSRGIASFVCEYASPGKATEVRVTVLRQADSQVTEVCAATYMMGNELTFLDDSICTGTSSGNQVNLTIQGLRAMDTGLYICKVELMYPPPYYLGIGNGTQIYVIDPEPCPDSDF

[4] = molecular target: T4, Recombinant human PD-L1 (human, UniProt Q9NZQ7 in part); experiment: ELISA, plate coated with recombinant human PD-L1, anti-human HRP detection
T4 construct: Bought protein; also called hPD-L1
T4 sequence (Q9NZQ7 19-238 limits assumed): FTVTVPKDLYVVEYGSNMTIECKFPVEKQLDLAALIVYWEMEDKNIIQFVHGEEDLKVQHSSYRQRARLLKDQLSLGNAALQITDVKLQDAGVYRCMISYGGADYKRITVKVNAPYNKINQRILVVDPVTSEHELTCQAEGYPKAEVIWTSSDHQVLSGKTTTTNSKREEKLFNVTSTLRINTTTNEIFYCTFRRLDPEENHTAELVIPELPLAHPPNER

[5] = molecular target: T5, VEGFR2 (UniProt P35968 20-764); experiment: SPR (Biacore T100), fusion protein captured by anti-IgG on CM5 chip, antigen injected
T5 construct: Bought protein
T5 sequence (P35968 20-764 limits assumed): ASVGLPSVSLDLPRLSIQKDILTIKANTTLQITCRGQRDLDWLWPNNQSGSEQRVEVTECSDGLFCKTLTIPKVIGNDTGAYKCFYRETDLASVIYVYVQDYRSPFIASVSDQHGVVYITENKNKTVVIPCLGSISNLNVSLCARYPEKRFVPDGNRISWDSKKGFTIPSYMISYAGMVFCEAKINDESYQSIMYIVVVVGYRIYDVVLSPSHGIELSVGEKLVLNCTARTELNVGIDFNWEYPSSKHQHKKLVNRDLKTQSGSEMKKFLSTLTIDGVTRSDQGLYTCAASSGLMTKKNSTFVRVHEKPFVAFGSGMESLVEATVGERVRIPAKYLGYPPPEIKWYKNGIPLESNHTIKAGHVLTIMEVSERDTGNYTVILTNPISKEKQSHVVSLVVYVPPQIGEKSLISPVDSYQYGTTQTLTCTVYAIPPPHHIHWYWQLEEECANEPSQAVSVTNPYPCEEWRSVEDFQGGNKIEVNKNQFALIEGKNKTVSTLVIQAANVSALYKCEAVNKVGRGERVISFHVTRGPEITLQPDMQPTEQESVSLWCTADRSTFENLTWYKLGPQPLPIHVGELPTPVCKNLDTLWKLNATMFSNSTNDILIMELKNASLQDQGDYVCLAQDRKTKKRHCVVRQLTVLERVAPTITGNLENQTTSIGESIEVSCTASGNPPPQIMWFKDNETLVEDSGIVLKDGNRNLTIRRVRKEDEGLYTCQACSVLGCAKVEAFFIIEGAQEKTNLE

- Kd [1]: 0.0341 nM
- koff [1]: 3.13e-05 s⁻¹
- kon [1]: 918000 M⁻¹ s⁻¹
- Kd [2]: 0.0398 nM
- koff [2]: 0.000125 s⁻¹
- kon [2]: 3.15e+06 M⁻¹ s⁻¹
- EC50 [3]: 2.89 µg/mL
- EC50 [4]: 3.75 µg/mL
B1: Fusion protein BY24.12 (Fc fusion)
chain: VIHVTKEVKEVATLSCGHNVSVEELAQTRIYWQKEKKMVLTMMSGDMNIWPEYKNRTIFDITNNLSIVILALRPSDEGTYECVVLKYEKDAFKREHLAEVTLSVKADFPTPSDKRV[human IgG4 Fc with S228P (EU numbers) left out here]GGGSGGGGSGGGGSASDTGRPFVEMYSEIPEIIHMTEGRELVIPCRVTSPNITVTLKKFPLDTLIPDGKRIIWDSRKGFIISNATYKEIGLLTCEATVNGHLYKTNYLTHRQTNTIIDVVLSPSHGIELSVGEKLVLNCTARTELNVGIDFNWEYPSSKHQHKKLVNRDLKTQSGSEMKKFLSTLTIDGVTRSDQGLYTCAASSGLMTKKNSTFVRVHE
notes: also called CD80-Fc-VEGFR fusion protein

- EC50 [3]: 1.92 µg/mL
- EC50 [4]: 2.2 µg/mL
B2: Fusion protein BY31.19 (Fc fusion)
chain: VIHVTKEVKEVATLSCGHNVSVEELAQTRIYWQKEKKMVLTMMSGDMNIWPEYKNRTIFDITNNLSIVILALRPSDEGTYECVVLKYEKDAFKREHLAEVTLSVKADFPTPSDKRV[human IgG4 Fc with S228P (EU numbers) left out here]
notes: Positive control in the ELISA; also called CD80-Fc fusion protein; CD80-Fc, IgG4

- Kd [5]: 0.0817 nM
- koff [5]: 5.57e-05 s⁻¹
- kon [5]: 682000 M⁻¹ s⁻¹
- EC50 [3]: 3.75 µg/mL
- EC50 [4]: 5.17 µg/mL
B3: Fusion protein BY24.5 (other)
light: DIQMTQSPSSVSASIGDRVTITCRASQGIDNWLGWYQQKPGKAPKLLIYDASNLDTGVPSRFSGSGSGTYFTLTISSLQAEDFAVYFCQQAKAFPPTFGGGTKVEIKRTVAAPSVFIFPPSDEQLKSGTASVVCLLNNFYPREAKVQWKVDNALQSGNSQESVTEQDSKDSTYSLSSTLTLSKADYEKHKVYACEVTHQGLSSPVTKSFNRGEC
heavy: EVQLVQSGGGLVKPGGSLRLSCAASGFTFSSYSMNWVRQAPGKGLEWVSSISSSSSYIYYADSVKGRFTISRDNAKNSLYLQMNSLRAEDTAVYYCARVTDAFDIWGQGTLVTVSSASTKGPSVFPLAPCSRSTSESTAALGCLVKDYFPEPVTVSWNSGALTSGVHTFPAVLQSSGLYSLSSVVTVPSSSLGTKTYTCNVDHKPSNTKVDKRV[human IgG4 Fc with S228P (EU numbers) left out here]GGGSGGGGSGGGGSVIHVTKEVKEVATLSCGHNVSVEELAQTRIYWQKEKKMVLTMMSGDMNIWPEYKNRTIFDITNNLSIVILALRPSDEGTYECVVLKYEKDAFKREHLAEVTLSVKADFPTPS
notes: Full-length anti-VEGFR antibody (kappa, IgG4) with CD80 IgV fused through a (G4S)3 linker to the C-terminus of each heavy chain; also called anti-VEGFR antibody-CD80 fusion protein; BY24.5 (κ, IgG4)
